These are yes or no findings as the source states them, for the method shown. Binding seen in cells or lysates may run through a third protein. Some results given as binding are weak or reduced against the parent protein; the word gives no strength.
Experiments:
[1] = molecular target: β‐catenin (human (endogenous in HEK293)) (UniProt P35222); assay: condition: only with His-USP30 overexpressed in the cells; co-IP; anti-β-catenin antibody, HEK293 cells with His-USP30 overexpression (Figures 5A, S6G)
Flag‐LEF1 (wild type) [2] = molecular target: Flag‐LEF1 (wild type) (UniProt Q9UJU2); assay: co-IP; anti-Flag beads, HEK293 cells transfected with Flag-LEF1 or Flag-LEF1-K379A/K382A, with His-vector or His-USP30 (Figures 5B,C and 6D,E); CBP and P300 rows: without His-USP30
Flag‐LEF1 (wild type) [3] = molecular target: Flag‐LEF1 (wild type) (UniProt Q9UJU2); assay: condition: only with His-USP30 overexpressed in the cells; co-IP; anti-Flag beads, HEK293 cells co-transfected with Flag-LEF1 and His-USP30 (Figure 5B,C)
[4] = molecular target: β‐catenin (human (endogenous in HEK293)) (UniProt P35222); assay: co-IP; anti-β-catenin antibody, HEK293 cells transfected with His-vector or His-USP30 (Figures 5A, S6G); CBP and P300 rows: without His-USP30
Flag‐LEF1‐K379A/K382A = Flag‐LEF1‐K379A/K382A (UniProt Q9UJU2); assay: co-IP; anti-Flag beads, HEK293 cells transfected with Flag-LEF1 or Flag-LEF1-K379A/K382A, with His-vector or His-USP30 (Figures 5B,C and 6D,E); CBP and P300 rows: without His-USP30

By UniProt entry, the sequences of proteins in these tests, tags left out. Where a name states a change or a piece, a line headed by the entry shows the natural chain unless it says otherwise.
UniProt P35222: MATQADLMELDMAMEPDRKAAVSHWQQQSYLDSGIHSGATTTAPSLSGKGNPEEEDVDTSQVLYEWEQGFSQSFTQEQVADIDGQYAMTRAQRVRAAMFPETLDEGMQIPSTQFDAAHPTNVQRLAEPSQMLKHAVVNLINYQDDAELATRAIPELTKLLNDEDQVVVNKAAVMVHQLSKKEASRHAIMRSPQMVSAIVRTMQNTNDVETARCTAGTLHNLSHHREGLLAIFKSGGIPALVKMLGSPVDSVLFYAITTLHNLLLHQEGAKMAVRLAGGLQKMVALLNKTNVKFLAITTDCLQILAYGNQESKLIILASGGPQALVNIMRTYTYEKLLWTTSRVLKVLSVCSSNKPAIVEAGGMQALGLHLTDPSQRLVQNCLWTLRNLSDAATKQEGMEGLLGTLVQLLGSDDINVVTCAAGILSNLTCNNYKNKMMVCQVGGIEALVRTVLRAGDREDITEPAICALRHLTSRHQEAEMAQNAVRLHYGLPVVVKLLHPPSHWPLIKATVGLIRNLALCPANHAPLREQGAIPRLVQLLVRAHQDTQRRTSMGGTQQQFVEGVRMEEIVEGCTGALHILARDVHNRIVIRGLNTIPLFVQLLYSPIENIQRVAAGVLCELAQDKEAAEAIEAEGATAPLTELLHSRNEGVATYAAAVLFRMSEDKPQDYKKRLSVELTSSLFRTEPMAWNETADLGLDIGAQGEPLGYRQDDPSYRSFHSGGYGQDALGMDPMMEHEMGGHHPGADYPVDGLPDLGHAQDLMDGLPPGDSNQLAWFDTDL
UniProt Q9UJU2: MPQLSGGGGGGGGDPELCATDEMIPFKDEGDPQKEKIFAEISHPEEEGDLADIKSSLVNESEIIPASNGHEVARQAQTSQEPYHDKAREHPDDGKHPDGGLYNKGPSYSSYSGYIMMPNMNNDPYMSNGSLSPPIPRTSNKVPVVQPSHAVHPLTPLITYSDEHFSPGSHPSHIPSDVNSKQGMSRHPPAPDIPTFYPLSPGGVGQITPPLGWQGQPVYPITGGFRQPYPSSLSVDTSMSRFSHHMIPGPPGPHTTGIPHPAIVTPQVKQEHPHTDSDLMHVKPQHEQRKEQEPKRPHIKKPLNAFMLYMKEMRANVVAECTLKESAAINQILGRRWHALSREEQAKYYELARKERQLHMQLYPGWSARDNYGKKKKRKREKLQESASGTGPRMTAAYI
UniProt Q92793: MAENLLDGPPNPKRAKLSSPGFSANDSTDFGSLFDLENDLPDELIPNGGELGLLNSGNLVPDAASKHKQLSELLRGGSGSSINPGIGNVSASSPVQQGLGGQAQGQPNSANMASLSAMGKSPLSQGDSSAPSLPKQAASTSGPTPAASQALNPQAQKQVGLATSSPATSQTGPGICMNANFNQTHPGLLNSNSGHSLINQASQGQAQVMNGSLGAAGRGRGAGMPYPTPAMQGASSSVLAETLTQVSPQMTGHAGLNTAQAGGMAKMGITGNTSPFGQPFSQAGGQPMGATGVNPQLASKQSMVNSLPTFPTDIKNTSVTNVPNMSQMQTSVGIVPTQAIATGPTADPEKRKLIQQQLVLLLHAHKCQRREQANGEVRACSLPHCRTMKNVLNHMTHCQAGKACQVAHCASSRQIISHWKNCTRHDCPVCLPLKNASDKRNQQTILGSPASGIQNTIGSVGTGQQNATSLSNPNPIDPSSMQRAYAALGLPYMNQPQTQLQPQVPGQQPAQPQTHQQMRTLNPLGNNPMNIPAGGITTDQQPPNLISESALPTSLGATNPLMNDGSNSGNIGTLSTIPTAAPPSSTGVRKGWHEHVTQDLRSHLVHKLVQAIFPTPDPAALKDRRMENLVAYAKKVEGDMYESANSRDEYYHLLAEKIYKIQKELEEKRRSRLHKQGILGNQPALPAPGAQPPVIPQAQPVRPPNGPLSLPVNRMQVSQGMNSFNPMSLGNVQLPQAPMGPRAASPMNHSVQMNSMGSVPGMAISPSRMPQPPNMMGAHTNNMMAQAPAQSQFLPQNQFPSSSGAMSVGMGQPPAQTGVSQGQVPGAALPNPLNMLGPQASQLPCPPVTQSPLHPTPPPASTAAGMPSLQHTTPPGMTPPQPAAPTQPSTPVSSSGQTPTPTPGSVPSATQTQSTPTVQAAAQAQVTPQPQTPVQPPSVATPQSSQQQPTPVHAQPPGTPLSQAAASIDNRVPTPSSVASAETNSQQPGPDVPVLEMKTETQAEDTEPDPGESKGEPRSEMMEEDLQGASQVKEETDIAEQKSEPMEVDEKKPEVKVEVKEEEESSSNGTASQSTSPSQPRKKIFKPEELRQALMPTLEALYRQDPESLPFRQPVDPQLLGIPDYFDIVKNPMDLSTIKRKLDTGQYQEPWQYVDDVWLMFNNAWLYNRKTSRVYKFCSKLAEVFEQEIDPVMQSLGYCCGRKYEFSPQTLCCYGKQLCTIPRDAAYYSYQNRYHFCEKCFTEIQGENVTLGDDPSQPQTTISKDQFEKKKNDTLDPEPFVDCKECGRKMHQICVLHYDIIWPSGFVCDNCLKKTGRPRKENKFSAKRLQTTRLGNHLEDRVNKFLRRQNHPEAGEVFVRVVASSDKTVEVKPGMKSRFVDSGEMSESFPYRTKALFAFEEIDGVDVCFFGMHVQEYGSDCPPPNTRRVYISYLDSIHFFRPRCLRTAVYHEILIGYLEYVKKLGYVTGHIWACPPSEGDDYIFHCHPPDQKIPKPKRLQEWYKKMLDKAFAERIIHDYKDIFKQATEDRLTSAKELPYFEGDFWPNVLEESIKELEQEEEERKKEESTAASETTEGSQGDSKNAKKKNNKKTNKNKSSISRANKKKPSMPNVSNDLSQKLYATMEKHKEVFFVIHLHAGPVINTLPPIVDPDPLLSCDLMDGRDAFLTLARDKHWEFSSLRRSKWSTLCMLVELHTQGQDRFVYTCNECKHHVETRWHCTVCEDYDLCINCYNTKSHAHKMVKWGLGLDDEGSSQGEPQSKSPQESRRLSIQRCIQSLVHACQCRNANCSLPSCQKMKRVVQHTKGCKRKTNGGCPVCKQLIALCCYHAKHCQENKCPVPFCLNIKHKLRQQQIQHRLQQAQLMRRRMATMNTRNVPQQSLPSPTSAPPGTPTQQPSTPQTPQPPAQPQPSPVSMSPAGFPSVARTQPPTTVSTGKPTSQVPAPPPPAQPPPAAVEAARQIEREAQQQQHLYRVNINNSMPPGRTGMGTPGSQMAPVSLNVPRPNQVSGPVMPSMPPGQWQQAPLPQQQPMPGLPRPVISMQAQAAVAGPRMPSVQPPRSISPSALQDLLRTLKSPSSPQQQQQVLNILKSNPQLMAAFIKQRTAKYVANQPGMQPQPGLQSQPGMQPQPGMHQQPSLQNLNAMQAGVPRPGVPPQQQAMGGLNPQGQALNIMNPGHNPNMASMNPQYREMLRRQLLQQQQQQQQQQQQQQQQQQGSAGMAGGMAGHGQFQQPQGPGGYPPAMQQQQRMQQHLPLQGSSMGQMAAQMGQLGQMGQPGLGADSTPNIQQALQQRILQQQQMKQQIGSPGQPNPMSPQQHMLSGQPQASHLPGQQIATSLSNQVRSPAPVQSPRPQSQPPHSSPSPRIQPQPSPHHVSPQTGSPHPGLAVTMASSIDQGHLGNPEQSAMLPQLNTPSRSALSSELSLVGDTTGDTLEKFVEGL

binding [1]	binding (Flag‐LEF1 (wild type) [2])	binding (Flag‐LEF1 (wild type) [3])	binding [4]	binding (Flag‐LEF1‐K379A/K382A)	Substance
no binding	binds	no binding	binds		CBP (from UniProt Q92793 1-2442) (enzyme)
			binds		transcription factor TCF/LEF1, endogenous (from UniProt Q9UJU2 1-399)
	binds			binds	β‐catenin (from UniProt P35222 1-781)
